# In the supplement of paper PMC12217912:
# The list shows a part of the results. The full chains were built here from the parent and the listed change. Inactive controls read about 0.05.
# B1: TEV protease; numbered along this chain (parent)
# chain: MGESLFKGPRDYNPISSSICHLTNESDGHTTSLYGIGFGPFIITNKHLFRRNNGTLVVQSLHGVFKVKDTTTLQQHLVDGRDMIIIRMPKDFPPFPQKLKFREPQREERICLVTTNFQTKSMSSMVSDTSCTFPSGDGIFWKHWIQTKDGQCGSPLVSTRDGFIVGIHSASNFTNTNNYFTSVPKNFMELLTNQEAQQWVSGWRLNADSVLWGGHKVFMVKPEEPFQPVKEATQL
# Variants of: B1
# Test: raw area under fraction-flipped curve 0-4 h after induction (AUC4h, not background-subtracted), DNA-recorder readout of cleavage of the substrate (dimensionless); higher = more cleavage of the substrate by the protease variant
# Conditions: temperature: 34 °C; time window: 0-4 h after rhamnose induction
# 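Further: Bxb1 expression induced with 0.2% (w/v) L-rhamnose at OD600 near 0.5, cultures sampled hourly, flipped fraction per protease–substrate barcode pair counted by paired-end Illumina sequencing.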
variant,measurement,value
MGESLFKGPRDYNPISSSICHLTNESDGHTTSLYGIGFGPFIITNKHLFRRNNGTLVVQSLHGVFKVKDTTTLQQHLVDGRDMIIIRMPKDFPPFPQKLKFREPQREEGICLVTTNFQTKSMSSMVSDTSCTFPSGDGIFWKHWIQTKDGQCGSPLVSTRDGFIVGIHSASNFTNTNNYFTSVPKNFMELLTNQEAQQWVSGWRLNADSVLWGGHKVFMVKPEEPFQPVKEATQL [R109G],area with substrate EALYFQS,0.122
same,area with substrate ECLYFQS,0.114
same,area with substrate EDLYFQS,0.105
same,area with substrate EELYFQS,0.119
same,area with substrate EGLYFQS,0.0849
same,area with substrate EHLYFQS,0.0858
same,area with substrate EILYFQS,0.104
same,area with substrate EKLYFQS,0.106
same,area with substrate ELLYFQS,0.0752
same,area with substrate EMLYFQS,0.127
same,area with substrate EPLYFQS,0.141
same,area with substrate ESLYFQS,0.092
same,area with substrate ETLYFQS,0.118
same,area with substrate EWLYFQS,0.0729
same,area with substrate EYLYFQS,0.0912
MGESLFKGPRDYNPISSSICHLTNESDGHTTSLYGIGFGPFIITNKHLFRRNNGTLVVQSLHGVFKVKDTTTLQQHLVDGRDMIIIRMPKDFPPFPQKLKFREPQREERICLVTTNFQTKSMSSMVSDTSCTFPSGDGIFWKHWIQTKDGQCGSPLVSTRDGFIVGIHSASNFTNTNNYFTSVPGNFMELLTNQEAQQWVSGWRLNADSVLWGGHKVFMVKPEEPFQPVKEATQL [K185G],area with substrate EALYFQS,0.0954
same,area with substrate ECLYFQS,0.113
same,area with substrate EDLYFQS,0.12
same,area with substrate EELYFQS,0.143
same,area with substrate EFLYFQS,0.0891
same,area with substrate EGLYFQS,0.102
same,area with substrate EHLYFQS,0.12
same,area with substrate EKLYFQS,0.122
same,area with substrate ELLYFQS,0.102
same,area with substrate EMLYFQS,0.129
same,area with substrate EQLYFQS,0.145
same,area with substrate ESLYFQS,0.106
same,area with substrate ETLYFQS,0.124
same,area with substrate EVLYFQS,0.104
MGESLFKGPRDYNPISSSICHLTNYSDGHTTSLYGIGFGPFIITNKHLFRRNNGTLVVQSLHGVFKVKDTTTLQQHLVDGRDMIIIRMPKDFPPFPQKLKFREPQREERICLVTTNFQTKSMSSMVSDTSCTFPSGDGIFWKHWIQTKDGQCGSPLVSTRDGFIVGIHSASNFTNTNNYFTSVPKNFMELLTNQEAQQWVSGWRLNADSVLWGGHKVFMVKPEEPFQPVKEATQL [E25Y],area with substrate EALYFQS,0.114
same,area with substrate ECLYFQS,0.0886
same,area with substrate EDLYFQS,0.133
same,area with substrate EFLYFQS,0.0933
same,area with substrate EGLYFQS,0.106
same,area with substrate EHLYFQS,0.0983
same,area with substrate EILYFQS,0.119
same,area with substrate EKLYFQS,0.105
same,area with substrate ELLYFQS,0.0908
same,area with substrate EMLYFQS,0.113
same,area with substrate EPLYFQS,0.0991
same,area with substrate EQLYFQS,0.123
same,area with substrate ERLYFQS,0.102
same,area with substrate ESLYFQS,0.104
same,area with substrate ETLYFQS,0.102
same,area with substrate EVLYFQS,0.111
same,area with substrate EYLYFQS,0.0963
MGESLFKGPRDYNPISSSICHLTNESDGHTTSLYGIGFGPFIITNKHLFRRNNGTLVVQSLHGVFKVKDTTTLQQHLVDGRDMIIIRMPKDFPPFPQKLKFREPQREERICLVTTNFQTKSMSSMVSDTSCTFPSGDGIFWKHWIQTKDGQCGSPLVSTRDGFIVGIHSASNFTNTNNYFTSVPKNFPELLTNQEAQQWVSGWRLNADSVLWGGHKVFMVKPEEPFQPVKEATQL [M188P],area with substrate EALYFQS,0.107
same,area with substrate ECLYFQS,0.144
same,area with substrate EDLYFQS,0.118
same,area with substrate EELYFQS,0.119
same,area with substrate EGLYFQS,0.0906
same,area with substrate EHLYFQS,0.0787
same,area with substrate EILYFQS,0.086
same,area with substrate ELLYFQS,0.101
same,area with substrate EMLYFQS,0.114
same,area with substrate EPLYFQS,0.0559
same,area with substrate EVLYFQS,0.0932
same,area with substrate EWLYFQS,0.0714
same,area with substrate EYLYFQS,0.129
MGESLFKGPRDYNPISSSICHLTNESDGHTTSLYGIGFGPFIITNKHLFRRNNGTLVVQSLHGVFKVKDTTTLQQHLVDGRDMIIIRMPKDFPPFPQKLKFREPQREERICLVTTNFQTKSMSSMVSDTSCTFPSGDGIFWKHWIQTKDGQCGSPLVSTRDGFIVDIHSASNFTNTNNYFTSVPKNFMELLTNQEAQQWVSGWRLNADSVLWGGHKVFMVKPEEPFQPVKEATQL [G166D],area with substrate EALYFQS,0.0487
same,area with substrate ECLYFQS,0.0437
same,area with substrate EDLYFQS,0.0492
same,area with substrate EELYFQS,0.0497
same,area with substrate EGLYFQS,0.0544
same,area with substrate EILYFQS,0.0438
same,area with substrate EKLYFQS,0.0526
same,area with substrate ELLYFQS,0.0492
same,area with substrate EMLYFQS,0.0692
same,area with substrate EQLYFQS,0.0646
same,area with substrate ERLYFQS,0.0494
same,area with substrate ESLYFQS,0.0603
same,area with substrate ETLYFQS,0.0479
same,area with substrate EVLYFQS,0.044
same,area with substrate EYLYFQS,0.0461
MGESLFKGPRDYNPISSSICHLTNESDGHTTSLYGIGFGPFIITNKHLFRRNNGTLVVQSLHGVFKVKDTTTLQQHLVDGRDMIIIRMPKDFPPFPQKLKFREPQREERICLVTTNFQTKSMSSMVSDTSCTFPSGDGIFWKHWIQTKDGQCGSPLVSTRDGFIVGIHSASNFTNTNNYFTSVPKNFMELLTNQEAQQWVSGWRLNADSVLWGGHKVFMVKPEEPFQPVNEATQL [K230N],area with substrate EALYFQS,0.0891
same,area with substrate ECLYFQS,0.105
same,area with substrate EDLYFQS,0.146
same,area with substrate EELYFQS,0.121
same,area with substrate EFLYFQS,0.0888
same,area with substrate EGLYFQS,0.0872
same,area with substrate EHLYFQS,0.0752
same,area with substrate EILYFQS,0.0858
same,area with substrate EKLYFQS,0.102
same,area with substrate EQLYFQS,0.141
same,area with substrate ERLYFQS,0.102
same,area with substrate ESLYFQS,0.111
same,area with substrate ETLYFQS,0.0989
same,area with substrate EVLYFQS,0.0909
same,area with substrate EWLYFQS,0.089
same,area with substrate EYLYFQS,0.127
MGESLFKGPRDYNPISSSICHLTNESDGHTTSLYGIGFGPFIITNKHLFRRNNGTLVVQSLHGVFKVKDTTTLQQHLVDGRDMIIIRMPKDFPPFPQKLKFREPQREERICLVTTNFQTKSMSSMVSDTSCTFPSGDGIFWKHWIQTKDGECGSPLVSTRDGFIVGIHSASNFTNTNNYFTSVPKNFMELLTNQEAQQWVSGWRLNADSVLWGGHKVFMVKPEEPFQPVKEATQL [Q151E],area with substrate EALYFQS,0.127
same,area with substrate ECLYFQS,0.118
same,area with substrate EDLYFQS,0.131
same,area with substrate EELYFQS,0.17
same,area with substrate EILYFQS,0.0752
same,area with substrate EKLYFQS,0.101
same,area with substrate ELLYFQS,0.0962
same,area with substrate EMLYFQS,0.141
same,area with substrate EPLYFQS,0.117
same,area with substrate EQLYFQS,0.131
same,area with substrate ERLYFQS,0.0814
same,area with substrate ESLYFQS,0.0959
same,area with substrate ETLYFQS,0.112
MGESLFKGPRDYNPISSSICHLTNESDGHTTSLYGIGFGPFIITNKHLFRRNNGTLVVQSLHGVFKVKDTTTLQQHLVDGRDMIIIRMPKDFPPFPQKLKFREPQREERICLVTTNFQTKSMSSMVEDTSCTFPSGDGIFWKHWIQTKDGQCGSPLVSTRDGFIVGIHSASNFTNTNNYFTSVPKNFMELLTNQEAQQWVSGWRLNADSVLWGGHKVFMVKPEEPFQPVKEATQL [S127E],area with substrate EALYFQS,0.0794
same,area with substrate ECLYFQS,0.111
same,area with substrate EDLYFQS,0.124
same,area with substrate EGLYFQS,0.0871
same,area with substrate EHLYFQS,0.0915
same,area with substrate EILYFQS,0.0951
same,area with substrate EKLYFQS,0.115
same,area with substrate ELLYFQS,0.0688
same,area with substrate EMLYFQS,0.101
same,area with substrate EPLYFQS,0.105
same,area with substrate EQLYFQS,0.109
same,area with substrate ERLYFQS,0.0874
same,area with substrate ESLYFQS,0.0933
same,area with substrate EVLYFQS,0.0956
same,area with substrate EYLYFQS,0.0838
MGESLFKGPRDYNPISSSIQHLTNESDGHTTSLYGIGFGPFIITNKHLFRRNNGTLVVQSLHGVFKVKDTTTLQQHLVDGRDMIIIRMPKDFPPFPQKLKFREPQREERICLVTTNFQTKSMSSMVSDTSCTFPSGDGIFWKHWIQTKDGQCGSPLVSTRDGFIVGIHSASNFTNTNNYFTSVPKNFMELLTNQEAQQWVSGWRLNADSVLWGGHKVFMVKPEEPFQPVKEATQL [C20Q],area with substrate EALYFQS,0.0978
same,area with substrate ECLYFQS,0.0555
same,area with substrate EDLYFQS,0.0543
same,area with substrate EELYFQS,0.0571
same,area with substrate EGLYFQS,0.0486
same,area with substrate EKLYFQS,0.0499
same,area with substrate ELLYFQS,0.0559
same,area with substrate EMLYFQS,0.0488
same,area with substrate EPLYFQS,0.0568
same,area with substrate ERLYFQS,0.0533
same,area with substrate ESLYFQS,0.0718
same,area with substrate EVLYFQS,0.0529
same,area with substrate EYLYFQS,0.0543
